# Measured values as given in PubChem BioAssay AID624417 (National Center for Advancing Translational Sciences (NCATS), 2012).
# About 6,400 (1.6%) of roughly 410,000 compounds were called active. This list was built around the results that the source calls inconclusive (neither active nor inactive); the mix of calls is not that of the screen. Calls come from the whole dose curve; as a rule, active = well fitted inhibition curve with a large enough effect; inconclusive = small, poorly fitted or top-dose-only effect; inactive = no such curve, though single readings can be large or run the other way. Potencies of inconclusive entries are left out as doubtful fits.
# Molecular target: Glucagon-like peptide 1 receptor (Homo sapiens) (UniProt P43220)
# Assay: qHTS of GLP-1 Receptor Inverse Agonists (Inhibition Mode); note: nearly all actives have a fitted effect of over 55% in size
# Conditions: HEK293 GLP-1R CRE-luciferase, luminescence, 24 h, GLP-1R form is constitutively active; activity change, negative = inhibition: at 38.3 µM (top of the series) unless noted
# Method in brief: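 Seeding at 200 cells/uL, 12 h culture, 24 hr compound treatment, then luciferase reagent and a luminescence read; cells are HEK293 stably expressing a constitutively active GLP-1R plus cAMP-responsive luciferase.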
# % is set by controls: 0 for no effect and ±100 for the full control effect; potency is the fitted concentration of half-maximal effect; tags give direction and shape of the fitted curve.
# UniProt P43220, sequence (P43220 whole entry, looked up): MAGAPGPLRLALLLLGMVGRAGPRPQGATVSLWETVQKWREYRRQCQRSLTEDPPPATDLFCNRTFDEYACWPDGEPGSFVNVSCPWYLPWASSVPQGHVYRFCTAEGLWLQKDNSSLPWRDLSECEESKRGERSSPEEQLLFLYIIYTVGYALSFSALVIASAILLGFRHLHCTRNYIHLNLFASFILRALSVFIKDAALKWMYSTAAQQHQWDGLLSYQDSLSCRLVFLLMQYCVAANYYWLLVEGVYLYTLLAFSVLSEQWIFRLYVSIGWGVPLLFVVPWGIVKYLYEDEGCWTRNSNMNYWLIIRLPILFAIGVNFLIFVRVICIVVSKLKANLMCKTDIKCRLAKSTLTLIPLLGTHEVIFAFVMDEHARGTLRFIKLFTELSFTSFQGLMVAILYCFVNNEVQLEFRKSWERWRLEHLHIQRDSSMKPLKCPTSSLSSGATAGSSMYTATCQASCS
SMILES,Potency,"activity change, negative = inhibition"
COc1ccccc1CNC(=O)C(NS(=O)(=O)c1ccc2c(c1)CCN2C(C)=O)C(C)C (stereo not given),inactive,–
CN(CC(=O)Nc1ccc(Cl)c(C(F)(F)F)c1)C(=O)c1cnccn1,"inconclusive [inhibitor, single point]",–
Cc1ccc(NC(=O)CCC(=O)N2Cc3ccccc3Oc3ncccc32)cc1Cl,inactive,–
CCOC(=O)c1cnc2ccc(OC)cc2c1Nc1ccc(OCc2ccccc2Cl)cc1,"inconclusive [inhibitor, partial curve, poor fit]",–
COc1cccc(/C=C2/C(=O)NN(c3ccc(F)cc3)C2=O)c1,–,inconclusive: -82.3% [inhibitor]
COC(=O)CC(NC(=S)NC(=O)c1ccccc1)c1ccc(Br)cc1 (stereo not given),"inconclusive [inhibitor, partial curve, poor fit]",–
C=CCN(c1ccccc1)S(=O)(=O)c1cc(C(=O)NC2=NCCS2)ccc1Cl,"inconclusive [inhibitor, partial curve, poor fit]",–
CCCCCC(=O)Nc1cccc(S(=O)(=O)NC2=NCCC2)c1,inactive,–
COc1ccc(-n2nc3ccc(NC(=O)c4cccc(OCCC(C)C)c4)cc3n2)cc1,"inconclusive [inhibitor, full curve, poor fit]",–
O=C(CCN1C(=O)c2ccccc2C1=O)NC(=S)Nc1cccc(Cl)c1,inactive,–
S=C(NCCc1ccccc1)NCc1cccs1,"inconclusive [inhibitor, single point]",–
CN(C)CCCN(C(=O)c1ccc2c(c1)OCCO2)c1nc2cc3c(cc2s1)OCO3,"inconclusive [inhibitor, partial curve, poor fit]",–
Cc1nn(C)c2c1c(-c1ccccc1)cc(=O)n2Cc1ccc(F)cc1,"inconclusive [inhibitor, partial curve, poor fit]",–
CN1CCN(c2ccc(NC(=O)c3ccc(-c4ccc(Br)cc4)o3)cc2)CC1,"inconclusive [inhibitor, partial curve, poor fit]",–
CCCCCn1cnc2c(sc3nc4c(cc32)CSC(C)(C)C4)c1=O,"inconclusive [inhibitor, full curve, poor fit]",–
CCCCNC(=O)C1(C)CCCCCN1Cc1cc2ccccc2o1 (stereo not given),"inconclusive [inhibitor, partial curve, poor fit]",–
COc1ccc(CCNC(=O)c2cnc3sc(N4CCOCC4)nn3c2=O)cc1,inactive,–
C=CCn1c(-c2cccs2)nc2nc3ccccc3nc21,"inconclusive [inhibitor, single point]",–
CCC(=O)NC(c1ccc(C)cc1)c1ccc2cccnc2c1O (stereo not given),"inconclusive [inhibitor, partial curve, poor fit]",–
Clc1ccc(C2[C@H]3CN(Cc4cccnc4)[C@H](c4ccccc4)C34CC2(c2ccccc2)C4)cn1 (stereo not given in full),"inconclusive [inhibitor, single point]",–

SMILES,Potency,"activity change, negative = inhibition"
O=C1C(c2ccccc2)NC(=S)N1C1CCCCC1 (stereo not given),"inconclusive [inhibitor, single point]",–
CCCCOc1ccc(S(=O)(=O)N2CCN(c3ccc(N4CCN(CC)CC4)nn3)CC2)cc1,"inconclusive [inhibitor, full curve, poor fit]",–
CCCCCn1c(CCCNC(=O)c2cccc(C)c2)nc2ccccc21,"inconclusive [inhibitor, partial curve, poor fit]",–
Nc1nonc1C(=O)NCCNCc1ccccc1OCc1ccccc1F,"inconclusive [inhibitor, single point]",–
CCN(C(=S)NCc1ccccc1)c1ccccc1,"inconclusive [inhibitor, single point]",–
Clc1ccccc1OCCCOc1cccc2cccnc12,"inconclusive [inhibitor, single point]",–
COC(=O)CSc1nc2c(c(C3CC=CCC3)c1C#N)CCC2 (stereo not given),"inconclusive [inhibitor, single point]",–
Cc1ccc(S(=O)(=O)N2CCN(c3nc4ccccc4nc3-n3nc(C)cc3C)CC2)cc1,"inconclusive [inhibitor, partial curve, poor fit]",–
COC(=O)c1ccccc1NC(=S)NC(NC(=O)COc1ccccc1)C(Cl)(Cl)Cl (stereo not given),"inconclusive [inhibitor, single point]",–
C[C@@H](C(=O)NC1CCN(Cc2ccccc2)CC1)N1C(=O)N2CCc3c([nH]c4ccccc34)[C@@]2(C)C1=O,"inconclusive [inhibitor, single point]",–
CC(OC(=O)/C=C/c1ccccc1)C(=O)Nc1cccc(C#N)c1 (stereo not given),"inconclusive [inhibitor, single point]",–
O=C(COc1ccc(Br)cc1)N1CCC(c2ccccc2)C1 (stereo not given),"inconclusive [inhibitor, single point]",–
CCOC(=O)c1cc(-c2ccccc2)n(CCC(=O)Nc2cc(OCC)ccc2OCC)c1C,"inconclusive [inhibitor, single point]",–
CCCc1c(C(=O)Nc2ccc(F)cc2F)cnn1-c1ccccc1,"inconclusive [inhibitor, single point]",–
N=c1n(N)c2ccccc2n1CC(=O)c1ccc(Br)cc1,"inconclusive [inhibitor, single point]",–
CC(C)(C)c1ccc(C(=O)Cn2cnnc2C#N)cc1,"inconclusive [inhibitor, partial curve, poor fit]",–
CCc1c(C(=O)Nc2ncn(Cc3cccc(C)c3)n2)csc1C,inactive,–
CCCOc1cccc(C(=O)Nc2ccc(CN3CCOCC3)cc2)c1,"inconclusive [inhibitor, partial curve, poor fit]",–
COCc1ccc(CN2CCC(C(=O)Nc3cccc(-c4cccc(Cl)c4)c3)CC2)o1,"inconclusive [inhibitor, full curve, poor fit]",–
COc1ccc(C(=O)NC(=S)Nc2cccc(S(=O)(=O)N3CCOCC3)c2)cc1,"inconclusive [inhibitor, partial curve, poor fit]",–
